# Assay results published in patent US12551573B2, “Compositions and methods for the targeting of PCSK9” (Scribe Therapeutics Inc., priority 2022, dated 2026).
# Substitutions are numbered along the chain they refer to. Where two headings read alike, the source gives them in different places.
# B1: DOMAIN_8226 (protein, listed as Rattus norvegicus)
# chain: ARGLMAFEDVAVYFSQEEWMFLNAAQRALYRHVMLENFALVDSIGPSVSRPRVIIQLQRGEEPWVPNRTIAGPGRGTHRRS
# B2: DOMAIN_8235 (protein, listed as Mus caroli)
# chain: SQVSVTFEDVAVLFTRDEWKKLVPSQRSLYREVMLENYSNLASLAGFPFTKPKVISLLQQGEDPWKVEEEGPGGFSLGLKC
# B3: DOMAIN_8289 (protein, listed as Peromyscus maniculatus)
# chain: DAVTYEDVHVNFTHEEWALLDPSQKSLYKDVMLETYWNLTSIGYKWEDHNFEENCQSSRRHGRHINCPSGYKPCEHEEYGK
# B4: DOMAIN_8301 (protein, listed as Mesocricetus auratus)
# chain: MNTVTYDDVHVNFTWEEWTLLDPSQKNLYKDVMLETYRNLTAVGYSWEDHNVEEHCQSYRRHSRLERSHTGEKSSVHTQCV
# B5: DOMAIN_8303 (protein, listed as Ictidomys tridecemlineatus)
# chain: SQEAVTFEDVAVYFTQNQWASLEPAQKALYQEVMLENYANITSLAALPFPKPDLIFQLELGEAPWVPDSWRPVGEEALGGR
# B6: DOMAIN_8305 (protein, listed as Ictidomys tridecemlineatus)
# chain: SQGPVLFEDVSVDFTQKEWQLLDPAQRRLYRDVMLENYRHLESLGHCVTKPELIRRLEQGEEPWILKREVPSHSHAEVQRA
# B7: DOMAIN_8308 (protein)
# chain: SKAPVTFGDLAIYFSQEEWEWLSPIQKDLYEDVMLENYTNLVSLGLSSRRPNVIALLEKGKAPWMVEPPRRRQGPDSRSKC
# modifications: Marmota monax
# B8: DOMAIN_8503 (protein, listed as Mus caroli)
# chain: SQCLLTFGDVSVDFSQEEWECLDSAQRALYIDVMLENYSNLVSVENYSTCDTVHQHVNTGKESCQRNNLGEMLRNPSHDAL
# B9: DOMAIN_8353 (protein, listed as Peromyscus maniculatus)
# chain: SKAPVTFGDLAIYFSQEEWEWLSPIQKDLYEDVMLENYQNLVLLGLACRRPNIITLLEKGKAPWVVEPSRRRRGPESGSKC
# B10: DOMAIN_8370 (protein, listed as Cavia porcellus)
# chain: QEIPVSFKDVVVGFTQEEWHWLNPVQRALYRDVMLETYSNLVSVGYEGTKPDVILRLEQEEAPWVCEAPCPGCCCWEDIWQ
# B11: DOMAIN_8412 (protein, listed as Mus musculus)
# chain: QCLLTFKDVFLDFSSEEWECLNFAQRTLYMDVMLENYNNLLFVENHCICGNYEKEKVLEQDTQHIVNEHGHNRKKSSKCNE
# B12: DOMAIN_8418 (protein, listed as Cricetulus griseus)
# chain: B9 chain with P4S, Q16R, N40T, L43S, A47V, V65M, C81R
# B13: DOMAIN_8467 (protein, listed as Mesocricetus auratus)
# chain: DAVTYQDLHITFTQEEWALLDSSQRNLYKDVMLETYMNLNAIGYKWEDNDIEQHCRSPQRHGRHERSPTREKPSAYMQCDK
# B14: DOMAIN_8489 (protein, listed as Mus caroli)
# chain: AHSMVMFRDVTVDFSQEEWECLSSYERDLYRDVMLENYSHLVSLAGCSISKPDVITLLEQGKEPWMIVRAEKRRWSRDLES
# B15: DOMAIN_8790 (protein)
# chain: NEMVTFKDVAVVFSGEELELLDSAQWKLYQDVMLENFRNLLSVGGRIQTELETFPEAGPHEELSWQQIWEQIASDSTFSQD
# modifications: Marmota monax
# B16: DOMAIN_8502 (protein, listed as Cricetulus griseus)
# chain: CNSWISPSDVAINFSKEEWECLHPSQKDLYRDVMLENYSNLVSVGLSESKPELVTCLEENKEPWMVNIDEAEGLGQGVFCY
# B17: DOMAIN_8546 (protein, listed as Mus musculus)
# chain: KPGTVSFADVAVYFSPEEWRYLRPAQRALYREVMRETYGLLTYLDVGCAKPALISWVEEESEVWGPGAQDPEVAMCRTEVH
# B18: DOMAIN_8547 (protein, listed as Mus caroli)
# chain: DKALMAFHDVAVAFSQMEWELLSPAQRILYREVMLENYSHLVSLGIAFSKPKLITQLEQGAEPWRDGSGCFLDLCPAEPRT
# B19: DOMAIN_8549 (protein, listed as Mus caroli)
# chain: VCGSVTFKDVAVDFSQEEWACLDATQKVLYRDMMLETYSNLVAVVGRCISKPDLIVLLEQEKEPWMAVKEETDRPSPDLES
# B20: DOMAIN_8688 (protein, listed as Mus musculus)
# chain: MDAVTYEDVHVNFSQEEWALLDPSQKSLYKDVMLETYWNLTCIGYKWEDHNIEDQHQSSGRHGRCINCPSAYGKKQCTNLF
# B21: DOMAIN_8689 (protein, listed as Mus musculus)
# chain: LLHGCCSLETHSIRDKNAVTYGDVHVNFTQEEWALLDPSQKKLYKDVMLETYRNLNAIGFNWDDKNTEEHCPSTRRWRRYP
# B22: DOMAIN_8853 (protein, listed as Mesocricetus auratus)
# chain: ARVAVMFSDVSIAFSQEEWEYLDLAQRDLYKDVMMENYRNVASLAGCFISKPDVISLLEQGKEPWKVVRKRRRNPDLETKD
# B23: DOMAIN_8789 (protein)
# chain: FQELVSFNDVTVGFTQEEWQHLDPSQRSLYREVMLENYSHLVSVGYCVTKPEVIFRLEQGEEPWISEAEFPSQSFPELWKA
# modifications: Marmota monax
# B24: DOMAIN_8793 (protein, listed as Mus caroli)
# chain: B19 chain with R47H, A67T, S81A
# B25: DOMAIN_8816 (protein, listed as Peromyscus maniculatus)
# chain: SGSQDAVTYEDVHVNFTPEEWALLDSSQKSLYKEVMLETYRNLTSIGYKWEDLNIEEHCQSSRRLKRYIIGHSRYKPCDRE
# B26: DOMAIN_8830 (protein, listed as Cavia porcellus)
# chain: LRDLVTFEDVAVDFTQEEWALLDASQRSLYREVMLENCRNLASLGCHVDKPSLISQLEQEDQAMTEERGNLPGTCPDLETV
# B27: DOMAIN_8839 (protein, listed as Peromyscus maniculatus)
# chain: RPRALKFADVAVYFSPEEWGCLRPAQRLLYREVMRETYGLLGALGCAGPTPALISWLERNTDDWEPAALDPQEYRRWATFQ
# B28: DOMAIN_8844 (protein, listed as Peromyscus maniculatus)
# chain: ARVSVMFSDVSIAFSREEWEYLDLSQRDLYKDVMMENYRNVASLGYFISKPDVISLLEQGKEPWKVVRRRRRNPDLETKDE
# B29: DOMAIN_8850 (protein, listed as Peromyscus maniculatus)
# chain: FKELVVFRDVAVEFCREEWECLDPRQRSLYRDVMLETYGNFVSLGLAISKPSVISLLEQGKEPWMVEQAGWYPDLLSVNET
# B30: DOMAIN_9114 (protein, listed as Peromyscus maniculatus)
# chain: PQSLLSFGDVAVDFSQEEWEYLDYDQRTLYMDVMLENYSNLVFVENHRIYGKYEKDLDQGTKHIAHEDVIIQEKSYKCNEL
# B31: DOMAIN_8886 (protein, listed as Cricetulus griseus)
# chain: LINAVTYNDVHINFTQEEWALLDPSQKSLYKDVMLETYRNLTAIGYSCEDHNIEEHCQSSTRHRRYERRHSREKPSEYSQC
# B32: DOMAIN_8899 (protein, listed as Mesocricetus auratus)
# chain: SETGNAVTYDDVHISFTSKEWALLDPSQKSLYKDVMLEIYSHLTAIGYKWEAHDSEDHGQRFRRQRRHKRSHTEVKTYKCS
# B33: DOMAIN_8931 (protein, listed as Cricetulus griseus)
# chain: DSVTFEDVAISFTVEEWALLDPSQKKLHRDVMEETFRNLAAIGRTQDDQHIDNDHRYSRRNQRNEVVERLLERNKSSECKE
# B34: DOMAIN_8936 (protein, listed as Cricetulus griseus)
# chain: GNQFSFQSLLTFKDVAINFSKEEWECLHTSQRNLYRDVMLENYSNLVSVGLSESKPELVTCLEQNKEPWMVNIDEAEGLGQ
# B35: DOMAIN_8989 (protein)
# chain: PKVPVSFEDVAMYFTKTEWKLLDLKQRILYKQVMLENYGHLVSLGFAFSKPRLVSQLERGEGPWVADSLRGQAEAESHAGE
# modifications: Marmota monax
# B36: DOMAIN_9012 (protein, listed as Mus musculus)
# chain: MVLVSFEDVAVDFTWEEWQALDAAQRTLYRDVMLETYSSLVSLGHCMAKPELIFNLEQGLGPRSTAGASVWNLSGRTEDS
# B37: DOMAIN_9042 (protein, listed as Mus caroli)
# chain: DLVTYDDVHVNFTQEEWALLDPSQKNLYKDVMLETYRNLSAIGYIWEVHTSEDHFQTSRSHGRHERSCTAVQPSEFIQCGK
# B38: DOMAIN_9331 (protein, listed as Peromyscus maniculatus)
# chain: IQNTVTYDDVHIDFTWEEWTLLDPSQRNLYKDVMVETYTNLTAVGYSWEDHNMEEHCQSSQRQRRYKRSNTGEKPCEYTQC
# Test system: HBEGF locus
# Format: cell-based, human
# [1] = repressor domain in dXR, repression of the HBEGF gene, abundance of domain in library after vs before diphtheria toxin selection
# [2] = high-throughput screen of dXR repression of the HBEGF gene, change in abundance of each domain in the library before and after diphtheria toxin selection
molecule,measurement,setting,value
B1,Log2 (fold change),[1],2.4602
B2,Log2 (fold change),[1],2.8965
B3,Log2 (fold change),[1],3.3026
B4,Log2 (fold change),[1],3.1084
B5,Log2 (fold change),[1],3.6843
B6,Log2 (fold change),[1],2.5554
B7,Log2 (fold change),[1],2.6564
B8,Log2 (fold change),[2],2.8193
B9,Log2 (fold change),[1],2.7989
B10,Log2 (fold change),[1],3.5737
B11,Log2 (fold change),[1],2.4486
B12,Log2 (fold change),[1],2.4014
B13,Log2 (fold change),[1],3.8156
B14,Log2 (fold change),[1],2.8336
B15,Log2 (fold change),[2],2.7436
B16,Log2 (fold change),[1],2.1429
B17,Log2 (fold change),[1],2.9439
B18,Log2 (fold change),[1],3.3997
B19,Log2 (fold change),[1],2.8508
B20,Log2 (fold change),[1],2.4409
B21,Log2 (fold change),[1],2.8548
B22,Log2 (fold change),[2],4.6199
B23,Log2 (fold change),[1],3.1756
B24,Log2 (fold change),[1],2.6774
B25,Log2 (fold change),[1],2.4156
B26,Log2 (fold change),[1],3.0644
B27,Log2 (fold change),[1],3.0637
B28,Log2 (fold change),[1],4.1629
B29,Log2 (fold change),[1],2.695
B30,Log2 (fold change),[2],2.2058
B31,Log2 (fold change),[1],3.5727
B32,Log2 (fold change),[1],3.2182
B33,Log2 (fold change),[1],2.9497
B34,Log2 (fold change),[1],4.3486
B35,Log2 (fold change),[1],2.2309
B36,Log2 (fold change),[1],2.3905
B37,Log2 (fold change),[1],2.5894
B38,Log2 (fold change),[2],4.1063
